Experimental data from US10363239B2, “Method for inhibiting growth of cancer cells” (Pain Therapeutics, Inc., priority 2013, dated 2019).

Tested on: MiaPaCa2 cell implants
Experiment: Xenograft survival study
Format: in vivo, Nu/Nu mice
Conditions: gemcitabine 50 mg/kg i.p. bi-weekly; n=8
Procedure: FIGS. 34A and 34B illustrate Kaplan-Meier survival curves (FIG. 34A) and averaged tumor volumes (FIG. 34B) in a xenograft study in which MiaPaCa2 cells were implanted in Nu/Nu mice. […] FIG. 34B illustrates average tumor volumes (mm3) in mice treated with vehicle alone (black diamonds), gemcitabine (open squares), Compound C0105 at 10 mg/kg (black triangles) and Compound C0105 at 100 mg/kg (open diamonds).
Mice were monitored individually and the treatment effect was compared to each mouse's own original tumor on the treatment day 0. The endpoint of the study was a tumor volume of 1500 mm^3 or 45 days, whichever comes first. The animals were euthanized when the endpoint was reached. Responders were followed longer (survival study). The Table below illustrates the drug treatment administered to the mice.
A third xenograft study was designed to measure survival rather than tumor volume at a designated time point.

Structure (SMILES): Nc1ccn([C@@H]2O[C@H](CO)[C@@H](O)C2(F)F)c(=O)n1 [gemcitabine, reference compound]
- Survival to 45 days without tumors reaching 1500 mm^3: two mice treated with gemcitabine reached 45 days
